Results published in US20130280282A1, “DR5 LIGAND DRUG CONJUGATES” (Daiichi Sankyo Co., Ltd., priority 2012, published 2013).

Legend:
[1] = test system: Human colorectal adenocarcinoma cell line HCT-116; assay: HCT 116 xenograft model; type: in vivo, nude mice; conditions: 3 mg/kg iv Days 11, 18, 25, FIG. 16
[2] = test system: Human renal cell carcinoma cell line Caki-2; assay: Caki-2 xenograft model; type: in vivo, nude mice; conditions: 3 mg/kg iv Days 18, 25, 32, FIG. 15
[3] = test system: Human colorectal adenocarcinoma cell line LoVo; assay: LoVo xenograft model; type: in vivo, nude mice; conditions: 3 mg/kg iv Days 10, 17, 24, FIG. 18
[4] = test system: Human ovarian adenocarcinoma cell line SK-OV-3; assay: SK-OV-3 xenograft model; type: in vivo, nude mice; conditions: 3 mg/kg iv Days 14, 21, 28, FIG. 22
[5] = test system: all tumor cell lines used for this assay; assay: In vitro cytotoxic activity, CellTiter Glo cell viability, all 12 tumor cell lines; type: cell-based; conditions: 72 hr, with goat anti-human IgG Fc antibody, FIGS. 1-12
[6] = test system: LoVo (human colorectal adenocarcinoma); assay: In vitro cytotoxic activity, CellTiter Glo cell viability, LoVo; type: cell-based; conditions: 72 hr, with goat anti-human IgG Fc antibody, FIG. 5
[7] = test system: Human melanoma cell line A375; assay: A375 xenograft model; type: in vivo, nude mice; conditions: 1 mg/kg ADC vs 3 mg/kg hB273 iv Days 14, 21, 28, FIG. 13
[8] = test system: Human lung adenocarcinoma cell line NCI-H2122; assay: NCI-H2122 xenograft model; type: in vivo, nude mice; conditions: 1 mg/kg iv Days 15, 22, 29, FIG. 21
[9] = test system: A549 (human lung adenocarcinoma); assay: In vitro cytotoxic activity, CellTiter Glo cell viability, A549; type: cell-based; conditions: A549, 72 hr, with goat anti-human IgG Fc antibody, FIG. 7
[10] = test system: Human colorectal adenocarcinoma cell line HCT-15; assay: HCT-15 xenograft model; type: in vivo, nude mice; conditions: 3 mg/kg iv Days 9, 16, 23, FIG. 17
[11] = test system: Human lung adenocarcinoma cell line NCI-H1975; assay: NCI-H1975 xenograft model; type: in vivo, nude mice; conditions: 3 mg/kg iv Days 13, 20, 27, FIG. 20
[12] = test system: Human lung carcinoma cell line NCI-H1299; assay: NCI-H1299 xenograft model; type: in vivo, nude mice; conditions: 3 mg/kg iv Days 14, 21, 28, FIG. 19
[13] = test system: Caki-2 (human renal cell carcinoma); assay: In vitro cytotoxic activity, CellTiter Glo cell viability, Caki-2; type: cell-based; conditions: Caki-2, 72 hr, with goat anti-human IgG Fc antibody, FIG. 8
[14] = test system: Human ovarian carcinoma cell line A2780; assay: A2780 xenograft model; type: in vivo, nude mice; conditions: 3 mg/kg iv Days 11, 18, 25, FIG. 14
[15] = test system: Human glioblastoma cell line U-87 MG; assay: U-87 MG xenograft model; type: in vivo, nude mice; conditions: 3 mg/kg iv Days 7, 14, 21, FIG. 23

B1: hB273-vc-MMAE: antibody drug conjugate of hB273 conjugated with mc-vc-MMAE, average drug loading about 3.5 to 4.5 (conjugate)
heavy: EVQLVQSGAEVKKPGASVKVSCKASGYSFIGYFMNWMKQSPGMSLEWIGRFNPYNEDTFYNQKFKGKATLTVDKSTSTAYMELSSLRSEDTAVYFCARSAYYFDSGGYFDYWGQGTLVTVSSASTKGPSVFPLAPSSKSTSGGTAALGCLVKDYFPEPVTVSWNSGALTSGVHTFPAVLQSSGLYSLSSVVTVPSSSLGTQTYICNVNHKPSNTKVDKRV[sequence of human IgG1 Fc omitted]
light: DIVMTQSPLSLPVTPGEPASISCRSSQSLVHSNKNTYLHWYLQKPGQSPQLLIYKVSNRFSGVPDRFSGSGSGTDFTLKISRVEAEDVGVYYCSQSTHVPWTFGPGTKVEIKRTVAAPSVFIFPPSDEQLKSGTASVVCLLNNFYPREAKVQWKVDNALQSGNSQESVTEQDSKDSTYSLSSTLTLSKADYEKHKVYACEVTHQGLSSPVTKSFNRGEC
anti-tumor efficacy compared with hB273 [1]: more potent anti-tumor efficacy than hB273 | anti-tumor efficacy compared with hTRA-8-mcMMAF [1]: more potent anti-tumor efficacy than hTRA-8-mcMMAF | anti-tumor activities [2]: none | anti-tumor efficacy compared with hB273 [3]: more potent anti-tumor efficacy than hB273 | anti-tumor efficacy compared with hTRA-8-mcMMAF [3]: more potent anti-tumor efficacy than hTRA-8-mcMMAF | anti-tumor efficacy compared with hB273 [4]: more potent anti-tumor efficacy than hB273 | anti-tumor efficacy compared with hTRA-8-mcMMAF [4]: more potent anti-tumor efficacy than hTRA-8-mcMMAF | cytotoxic activity compared with hTRA-8-mcMMAF [5]: more potent cytotoxic activity than hTRA-8-mcMMAF | cytotoxic activity compared with hB273 [6]: more potent cytotoxic activity than hB273 | anti-tumor efficacy compared with hB273 [7]: more potent anti-tumor efficacy than hB273 | anti-tumor activity compared with hB273 [8]: less effective than that of hB273 | anti-tumor efficacy compared with hTRA-8-mcMMAF [8]: more potent anti-tumor efficacy than hTRA-8-mcMMAF | cytotoxic activity compared with hB273 [9]: more potent cytotoxic activity than hB273 | anti-tumor activity compared with hB273 [10]: less effective than that of hB273 | anti-tumor efficacy compared with hB273 [11]: more potent anti-tumor efficacy than hB273 | anti-tumor efficacy compared with hTRA-8-mcMMAF [11]: more potent anti-tumor efficacy than hTRA-8-mcMMAF | anti-tumor efficacy compared with hB273 [12]: more potent anti-tumor efficacy than hB273 | anti-tumor efficacy compared with hTRA-8-mcMMAF [12]: more potent anti-tumor efficacy than hTRA-8-mcMMAF | cytotoxic activity compared with hB273 [13]: more potent cytotoxic activity than hB273 | anti-tumor efficacy compared with hB273 [14]: more potent anti-tumor efficacy than hB273 | anti-tumor efficacy compared with hTRA-8-mcMMAF [14]: more potent anti-tumor efficacy than hTRA-8-mcMMAF | anti-tumor efficacy compared with hB273 [15]: more potent anti-tumor efficacy than hB273 | anti-tumor efficacy compared with hTRA-8-mcMMAF [15]: more potent anti-tumor efficacy than hTRA-8-mcMMAF

B2: hB273: Humanized anti-DR5 antibody B273, heavy chain SEQ ID NO:9 (or residues 1-451), light chain SEQ ID NO:10 (antibody)
heavy: B1 heavy
light: B1 light
modifications: synthetic anti-human death receptor 5 (DR5, TRAIL-R2) monoclonal antibody hB273 heavy chain; synthetic anti-human death receptor 5 (DR5, TRAIL-R2) monoclonal antibody hB273 light chain
anti-tumor activities [2]: none
